# Source: the supplement of paper PMC8728848
# The list shows a part of the results.
# B1: SAG3 (Toxoplasma gondii), Q9BJ39 (protein)
# chain: MQLWRRRAAGPASLGRQSLPLGCFFAAFGLCVLSAILGTGERGLFVAAGNSRRKITYFGTLTQKAPNWYRCSSTRAKEEVVGHVTLNKEHPDMTIECVDDGLGGEFLPLEGARSSYPRVCHIDAKDQDDCERNRGFLTDYIPGAKQYWYKIEKVEQNGEQSVLYKFTVPWILLPPAKQRYKVGCRYPNHEYCFVEVTVEPTPPMVEGKRVTCGYSESGPVNLEVDLSKNANFIEIRCGEQHHPQPSTYTLQYCSGDSVDPQKCSPQSLTNIFYDYSSSWWKGKLNGPDGATLTIPPGGFPEEDKSFLVGCSLTVDGPPFCNVKVRVAGNPRKWERGGGGHPGSGGLQPGTDGETQAGTGSSAGASSRMASVALAFLLGLLVHVAA
# Experiments:
# Assay in all cases: glycan array binding signal (z-score within array); higher = stronger binding
# Details in all cases: glycan notation: IUPAC condensed, linker removed
# [1] = molecular target: Gal(a1-3)Gal(b1-3)GlcNAc
# Procedure, shortened: (§1)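 Glycan array data were curated from 3228 arrays in the Consortium for Functional Glycomics database and kept only where the protein sequence was available. Glycan names were converted to IUPAC-condensed notation, and columns mapping to the same glycan were averaged. The binding signal is a within-array Z-score, averaged across arrays of the same protein sequence at different concentrations or buffers and across linkers. Negative Z-scores can be read as non-binding.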
# [2] = molecular target: Gal(a1-3)Gal(b1-3)GlcNAc(b1-2)Man(a1-3)[Gal(a1-3)Gal(b1-3)GlcNAc(b1-2)Man(a1-6)]Man(b1-4)GlcNAc(b1-4)GlcNAc
# Procedure, shortened: as §1
# [3] = molecular target: Gal(a1-3)Gal(b1-3)[Fuc(a1-4)]GlcNAc(b1-2)Man(a1-3)[Gal(a1-3)Gal(b1-3)[Fuc(a1-4)]GlcNAc(b1-2)Man(a1-6)]Man(b1-4)GlcNAc(b1-4)GlcNAc
# Procedure, shortened: as §1
# [4] = molecular target: Gal(a1-3)Gal(b1-4)Glc
# Procedure, shortened: as §1
# [5] = molecular target: Gal(a1-3)Gal(b1-4)GlcNAc
# Procedure, shortened: as §1
# [6] = molecular target: Gal(a1-3)Gal(b1-4)GlcNAc(b1-3)GalNAc
# Procedure, shortened: as §1
# [7] = molecular target: Gal(a1-3)Gal(b1-4)[Fuc(a1-3)]GlcNAc
# Procedure, shortened: as §1
# [8] = molecular target: Gal(a1-3)Gal(b1-4)[Fuc(a1-3)]GlcNAc(b1-2)Man(a1-3)[Gal(a1-3)Gal(b1-4)[Fuc(a1-3)]GlcNAc(b1-2)Man(a1-6)]Man(b1-4)GlcNAc(b1-4)GlcNAc
# Procedure, shortened: as §1
# [9] = molecular target: Gal(a1-3)GalNAc
# Procedure, shortened: as §1
# [10] = molecular target: Gal(a1-3)[Gal(a1-4)]Gal(b1-4)GlcNAc
# Procedure, shortened: as §1
# [11] = molecular target: Gal(a1-4)Gal(b1-3)GlcNAc(b1-2)Man(a1-3)[Gal(a1-4)Gal(b1-3)GlcNAc(b1-2)Man(a1-6)]Man(b1-4)GlcNAc(b1-4)GlcNAc
# Procedure, shortened: as §1
# [12] = molecular target: Gal(a1-4)Gal(b1-4)Glc
# Procedure, shortened: as §1
# [13] = molecular target: Gal(a1-4)Gal(b1-4)GlcNAc
# Procedure, shortened: as §1
# [14] = molecular target: Gal(a1-4)Gal(b1-4)GlcNAc(b1-2)Man(a1-3)[Gal(a1-4)Gal(b1-4)GlcNAc(b1-2)Man(a1-6)]Man(b1-4)GlcNAc(b1-4)GlcNAc
# Procedure, shortened: as §1
# [15] = molecular target: Gal(a1-4)Gal(b1-4)GlcNAc(b1-3)Gal(b1-4)Glc
# Procedure, shortened: as §1
# [16] = molecular target: Gal(a1-4)GlcNAc
# Procedure, shortened: as §1
# [17] = molecular target: Gal(a1-6)Glc
# Procedure, shortened: as §1
# [18] = molecular target: Gal(b1-2)Gal
# Procedure, shortened: as §1
# [19] = molecular target: Gal(b1-3)Gal
# Procedure, shortened: as §1
# [20] = molecular target: Gal(b1-3)Gal(b1-4)GlcNAc
# Procedure, shortened: as §1
# [21] = molecular target: Gal(b1-3)Gal(b1-4)GlcNAc(b1-2)Man(a1-3)[Gal(b1-3)Gal(b1-4)GlcNAc(b1-2)Man(a1-6)]Man(b1-4)GlcNAc(b1-4)GlcNAc
# Procedure, shortened: as §1
# [22] = molecular target: Gal(b1-3)GalNAc
# Procedure, shortened: as §1
# [23] = molecular target: Gal(b1-3)GalNAc(a1-3)[Fuc(a1-2)]Gal(b1-4)Glc
# Procedure, shortened: as §1
# [24] = molecular target: Gal(b1-3)GalNAc(a1-3)[Fuc(a1-2)]Gal(b1-4)GlcNAc
# Procedure, shortened: as §1
# [25] = molecular target: Gal(b1-3)GalNAc(b1-3)Gal(a1-4)Gal(b1-4)Glc
# Procedure, shortened: as §1
# [26] = molecular target: Gal(b1-3)GalNAc(b1-4)Gal(b1-4)Glc
# Procedure, shortened: as §1
# [27] = molecular target: Gal(b1-3)GalNAc(b1-4)[Neu5Ac(a2-3)]Gal(b1-4)Glc
# Procedure, shortened: as §1
# [28] = molecular target: Gal(b1-3)GlcNAc
# Procedure, shortened: as §1
# [29] = molecular target: Gal(b1-3)GlcNAc(a1-6)Gal(b1-4)GlcNAc
# Procedure, shortened: as §1
# [30] = molecular target: Gal(b1-3)GlcNAc(b1-2)Man(a1-3)[Gal(b1-3)GlcNAc(b1-2)Man(a1-6)]Man(b1-4)GlcNAc(b1-4)GlcNAc
# Procedure, shortened: as §1
# [31] = molecular target: Gal(b1-3)GlcNAc(b1-2)Man(a1-3)[Gal(b1-3)GlcNAc(b1-2)Man(a1-6)]Man(b1-4)GlcNAc(b1-4)[Fuc(a1-6)]GlcNAc
# Procedure, shortened: as §1
# [32] = molecular target: Gal(b1-3)GlcNAc(b1-3)Gal(b1-3)GlcNAc
# Procedure, shortened: as §1
# [33] = molecular target: Gal(b1-3)GlcNAc(b1-3)Gal(b1-4)Glc
# Procedure, shortened: as §1
# [34] = molecular target: Gal(b1-3)GlcNAc(b1-3)Gal(b1-4)GlcNAc
# Procedure, shortened: as §1
# [35] = molecular target: Gal(b1-3)GlcNAc(b1-3)Gal(b1-4)GlcNAc(b1-6)[Gal(b1-3)GlcNAc(b1-3)]Gal(b1-4)Glc
# Procedure, shortened: as §1
# [36] = molecular target: Gal(b1-3)GlcNAc(b1-3)Gal(b1-4)[Fuc(a1-3)]GlcNAc(b1-6)[Gal(b1-3)GlcNAc(b1-3)]Gal(b1-4)Glc
# Procedure, shortened: as §1
# [37] = molecular target: Gal(b1-3)GlcNAc(b1-3)GalNAc
# Procedure, shortened: as §1
# [38] = molecular target: Gal(b1-3)GlcNAc(b1-6)Gal(b1-4)GlcNAc
# Procedure, shortened: as §1
binder,measurement,setting,value
B1,glycan array binding signal (z-score),[1],-0.342
same,glycan array binding signal (z-score),[2],0.338
same,glycan array binding signal (z-score),[3],0.273
same,glycan array binding signal (z-score),[4],-0.051
same,glycan array binding signal (z-score),[5],-0.223
same,glycan array binding signal (z-score),[6],-0.172
same,glycan array binding signal (z-score),[7],-0.307
same,glycan array binding signal (z-score),[8],4.74
same,glycan array binding signal (z-score),[9],-0.176
same,glycan array binding signal (z-score),[10],-0.284
same,glycan array binding signal (z-score),[11],-0.051
same,glycan array binding signal (z-score),[12],-0.539
same,glycan array binding signal (z-score),[13],-0.01
same,glycan array binding signal (z-score),[14],-0.168
same,glycan array binding signal (z-score),[15],0.097
same,glycan array binding signal (z-score),[16],-0.272
same,glycan array binding signal (z-score),[17],0.318
same,glycan array binding signal (z-score),[18],-0.633
same,glycan array binding signal (z-score),[19],-0.083
same,glycan array binding signal (z-score),[20],0.353
same,glycan array binding signal (z-score),[21],0.147
same,glycan array binding signal (z-score),[22],0.113
same,glycan array binding signal (z-score),[23],-0.32
same,glycan array binding signal (z-score),[24],-0.103
same,glycan array binding signal (z-score),[25],-0.315
same,glycan array binding signal (z-score),[26],0.085
same,glycan array binding signal (z-score),[27],-0.033
same,glycan array binding signal (z-score),[28],0.181
same,glycan array binding signal (z-score),[29],-0.581
same,glycan array binding signal (z-score),[30],0.157
same,glycan array binding signal (z-score),[31],0.257
same,glycan array binding signal (z-score),[32],-0.023
same,glycan array binding signal (z-score),[33],0.063
same,glycan array binding signal (z-score),[34],0.141
same,glycan array binding signal (z-score),[35],0.551
same,glycan array binding signal (z-score),[36],0.016
same,glycan array binding signal (z-score),[37],0.363
same,glycan array binding signal (z-score),[38],-0.244
